# Assay results reported in article PMC4336329 (PLoS ONE, 2015).
# In all, about 310,000 compounds went through this assay and about 2,200 (0.71%) showed an effect of 50% or more. The effect is printed as a negative number. The list shows a part of the results.
# Target: human ether-à-go-go-related gene (hERG) potassium channel (human, UniProt Q12809)
# Assay: primary screen, population patch clamp on CHO cells stably expressing hERG
# Chain of human ether-à-go-go-related gene (hERG) potassium channel (Q12809 whole entry, looked up): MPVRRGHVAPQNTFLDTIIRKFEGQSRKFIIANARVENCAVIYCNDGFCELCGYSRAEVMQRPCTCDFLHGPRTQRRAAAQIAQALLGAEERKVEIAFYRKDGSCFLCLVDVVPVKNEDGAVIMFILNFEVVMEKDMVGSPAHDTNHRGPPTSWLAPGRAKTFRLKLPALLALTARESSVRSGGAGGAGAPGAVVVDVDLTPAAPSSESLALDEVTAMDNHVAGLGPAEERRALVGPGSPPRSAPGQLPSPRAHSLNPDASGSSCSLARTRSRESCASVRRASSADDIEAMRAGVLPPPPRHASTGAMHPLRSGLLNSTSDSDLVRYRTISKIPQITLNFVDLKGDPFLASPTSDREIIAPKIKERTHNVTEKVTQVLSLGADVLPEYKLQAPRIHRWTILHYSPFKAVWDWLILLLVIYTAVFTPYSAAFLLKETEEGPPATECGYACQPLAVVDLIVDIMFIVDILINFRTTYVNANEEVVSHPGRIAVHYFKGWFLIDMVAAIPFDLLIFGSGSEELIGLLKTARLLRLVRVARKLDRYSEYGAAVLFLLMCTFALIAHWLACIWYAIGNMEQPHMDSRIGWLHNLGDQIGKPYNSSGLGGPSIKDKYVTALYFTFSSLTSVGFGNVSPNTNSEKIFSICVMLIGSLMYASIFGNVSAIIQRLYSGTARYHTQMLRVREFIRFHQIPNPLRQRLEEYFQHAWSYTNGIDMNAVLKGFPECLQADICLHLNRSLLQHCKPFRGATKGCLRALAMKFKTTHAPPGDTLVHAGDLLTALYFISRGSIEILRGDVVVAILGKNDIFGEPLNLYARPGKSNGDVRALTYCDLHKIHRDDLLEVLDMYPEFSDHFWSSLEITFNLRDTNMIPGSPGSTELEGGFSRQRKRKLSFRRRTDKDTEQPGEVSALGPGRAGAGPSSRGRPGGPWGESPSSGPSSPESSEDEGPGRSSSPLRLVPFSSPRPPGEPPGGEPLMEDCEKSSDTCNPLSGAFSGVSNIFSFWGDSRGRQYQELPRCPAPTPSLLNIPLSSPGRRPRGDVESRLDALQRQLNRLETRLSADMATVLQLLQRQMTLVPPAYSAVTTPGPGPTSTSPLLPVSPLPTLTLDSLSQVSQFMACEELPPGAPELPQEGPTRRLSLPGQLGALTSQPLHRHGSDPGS
row,Compound,"hERG current change (%, negative = inhibition) at 1uM [%]"
1,CCC(=O)N1c2ccccc2NC2=C(C(=O)CCC2)C1c1ccco1 (centres unmarked),13.5
2,Cn1nc(C(F)(F)F)c(/C=N/OC(=O)c2ccccc2)c1SCc1ccccc1Cl,7.7
3,Cc1ccc(-n2nc(C)c(NS(=O)(=O)c3ccccc3)c2C)cc1C,-9.54
4,O=C(Nc1ccccc1)C1CCCN(C(=O)c2ccc(Cl)cc2)C1 (centres unmarked),-6.09
5,O=C1CCC(C(=O)OCC(=O)c2ccccc2)N1 (centres unmarked),8.09
6,O=C(NC(C(=O)c1ccccc1)n1ccc(=O)[nH]c1=O)c1ccccc1 (centres unmarked),6.41
7,CC(NC(=O)CCNC(=O)c1ccccc1Cl)C1CC2CCC1C2 (centres unmarked),-13.8
8,Cc1ccccc1NC(=S)Nc1ccc2cn[nH]c2c1,9.24
9,Cc1cc(C)n2nc(SCC(=O)c3ccccc3)nc2n1,5.55
10,Cc1ccsc1/C=N/Nc1ccc(F)cc1F,12.9
11,CC(CC(=O)O)n1nnc2ccccc21 (centres unmarked),10.2
12,CC(=NCc1cccnc1)C1=C(O)c2ccccc2C1=O,8.39
13,CC(C)CN(C(=O)COC(=O)CN1C(=O)c2ccccc2C1=O)c1c(N)n(Cc2ccccc2)c(=O)[nH]c1=O,13.4
14,O=C(Cc1ccc(O)cc1)NCCNC(=S)NCc1ccccc1,12.2
15,CCOc1ccc(CCNC(=O)Cn2ccc3ccccc3c2=O)cc1OCC,8.42
16,Cc1onc(-c2ccccc2)c1NC(=O)N(CCC#N)Cc1ccccc1,15.5
17,COc1cccc(CN2CCN(c3nc4nonc4nc3NC3CC3)CC2)c1,8.73
18,CC(C)c1ccc(S(=O)(=O)N2CCCCC2)cc1,-0.783
19,O=C(COC(=O)C1CCCCC1)Nc1ccc(S(=O)(=O)N2CCOCC2)cc1,4.75
20,O=C(NNC1CC(=O)N(c2ccc(Br)cc2)C1=O)c1cccs1 (centres unmarked),14.7
21,O=C(COC(=O)c1ccc2ccccc2n1)c1ccc(F)cc1,-5.55
22,CCC(=O)NC1=C(Nc2ccc(N)cc2)C(=O)c2ccccc2C1=O,11.4

row,Compound,"hERG current change (%, negative = inhibition) at 1uM [%]"
1,COc1ccc(CNCC(O)(c2ccc(F)cc2)c2ccc(F)cc2)cc1,-21.9
2,CC(Nc1nc(-c2ccc(Cl)cc2)cs1)c1nc2cc(Cl)c(N3CCCCC3)cc2n1CCOCCO (centres unmarked),13.8
3,CCc1nn2c(N(C)CCO)cc(C)nc2c1-c1ccc(F)cc1,3.36
4,CCOC(=O)c1[nH]cnc1C(=O)Nc1ccccn1,-1.69
5,CN(C)/N=C/c1ccc(P(c2ccc(/C=N/N(C)C)o2)c2ccc(/C=N/N(C)C)o2)o1,14.2
6,CCCCOc1ccc(-c2csc(N)n2)cc1[N+](=O)[O-],13
7,COc1ccc(CCn2c(N3CCN(C)CC3)nc3c2c(=O)[nH]c(=O)n3C)cc1,1.04
8,CCc1nnc(NC(=O)CC(CN(C)S(=O)(=O)c2ccccc2)c2ccccc2)s1 (centres unmarked),21
9,CCCCn1c(N)c(N(CCOC)C(=O)c2ccc(C)c(S(=O)(=O)N3CCCCC3)c2)c(=O)[nH]c1=O,25.7
10,COc1ccc(CNC(=O)CSc2nnc(C(F)(F)F)n2C)cc1,18.8
11,CCN1CCCC1CN(Cc1cc2ccc(C)cc2[nH]c1=O)C(=S)Nc1cccc(OC)c1 (centres unmarked),-44
12,CCCCn1c(N)c(N(CCC(C)C)C(=O)c2cccc(N3C(=O)c4ccccc4C3=O)c2)c(=O)[nH]c1=O,4.4
13,CC(C)(C)CN1CCNC[C@H]1Cc1cccc2ccccc12,14.8
14,CCn1c(CC(=O)Nc2ccccc2)nnc1SCC(=O)Nc1nnc(C)s1,14.7
15,CCCCNC(=O)/C(C#N)=C/c1ccc(C(=O)OC)cc1,15.1
16,CC1CCCCC1NC(=O)CSc1nc2ccccc2c(=O)n1Cc1ccco1 (centres unmarked),12.9
17,CC(C)C[C@H](NC(=O)[C@@H]1Cc2c([nH]c3ccccc23)C2c3ccccc3C(=O)N21)C(=O)N1CCC[C@@H]1C(=O)O (some centres unmarked),7.08
18,COc1ccc(NS(=O)(=O)c2cccc(C(=O)NCc3ccco3)c2)cc1,-5.46
19,O=C(Nc1ccc(S(=O)(=O)N2CCCCC2)cc1)C1CC(=O)N(c2ccc(Cl)cc2)C1 (centres unmarked),9.9
20,CN(C)S(=O)(=O)c1cccc(C(=O)N2CCC(C(=O)O)(c3ccccc3)CC2)c1,17.6
21,COc1ccc(NC(=O)C(Sc2ccccc2)c2ccccc2)c(OC)c1 (centres unmarked),-0.796
22,CC12CCC(C(=O)N3CCCCC3)([C@H](Br)C1=O)C2(C)C (some centres unmarked),12.8
